The source gives no read counts; variants with many changes may rest on few reads.
B1: CPEB3 Ribozyme (parent)
chain: UAACAGGGGGCCACAGCAGAAGCGUUCACGUCGCAGCCCCUGUCAGAUUCUGGUGAAUCUGCGAAUUCUGCUGUAUAUCUC

Variants of: B1
Experiment: self-cleavage, relative activity (ratio to wild type); higher = more cleavage; in vitro, sequencing
Procedure, shortened: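 Relative activity was defined as the cleaved/total read fraction for a variant divided by the same fraction for the unmutated ribozyme. CPEB3 self-cleaving ribozyme libraries were made by rounds of error-prone PCR, barcoded, and transcribed in vitro with T7 RNA polymerase for 5 hours at 37°C, and cleavage ran through transcription plus a 15 min DNase I step before EDTA. Illumina sequencing of template-switched reverse transcripts gave the reads, and DNA sequencing mapped the barcodes. Averages come from three batches, using variants with at least 5 reads.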

For A5G A18G G46A A57U, which self-cleavage is on record?
The self-cleavage was 0.14.

For A5G A18G G46A U51A U67C, which self-cleavage is on record?
The self-cleavage was 0.08.

With A5G A18G U25G A28U U41A U49C U51C as the variant, how does the self-cleavage read?
Its self-cleavage is 0.13.

Which self-cleavage does the source give for A5G A18G U26A here?
Its self-cleavage is 0.14.

For A5G A18G U26A U31A U60C U66C, which self-cleavage is on record?
Its self-cleavage is 0.07.

For A5G A18G U26C, which self-cleavage is on record?
Its self-cleavage is 0.53.

For A5G A18G U31A G61C U67A, which self-cleavage is on record?
Its self-cleavage is 0.06.

With A5G A18G U31C U54A U72A A75U U76C as the variant, how does the self-cleavage read?
The self-cleavage was 0.09.

Which self-cleavage does the source give for A5G A18G U41A here?
Its self-cleavage is 0.41.

For A5G A18G U41A U43C U78C, which self-cleavage is on record?
Its self-cleavage is 0.31.

With A5G A18G U43C U51A as the variant, how does the self-cleavage read?
Its self-cleavage is 0.59.

For A5G A18G U54A A56G U74C, which self-cleavage is on record?
The self-cleavage was 0.56.

Which self-cleavage does the source give for A5G A18G U54A U72A U76C here?
Its self-cleavage is 0.4.

For A5G A18G U60C A75G, which self-cleavage is on record?
The self-cleavage was 0.25.

With A5G A18G U60C U69C as the variant, how does the self-cleavage read?
Its self-cleavage is 0.34.

With A5G A18G U72C A75G as the variant, how does the self-cleavage read?
The self-cleavage was 0.17.

Which self-cleavage does the source give for A5G A18U A20G A28U C50A U66C here?
The self-cleavage was 0.07.

For A5G A18U A20U C23A A35G A57G, which self-cleavage is on record?
The self-cleavage was 0.42.

For A5G A18U A20U C37U A65G, which self-cleavage is on record?
Its self-cleavage is 0.1.

With A5G A18U A20U U43C A56G U58C A75C as the variant, how does the self-cleavage read?
Its self-cleavage is 0.07.

For A5G A18U A28G C32U, which self-cleavage is on record?
Its self-cleavage is 0.31.

For A5G A18U A35G A47G A56U U67C, which self-cleavage is on record?
The self-cleavage was 0.16.

Which self-cleavage does the source give for A5G A18U A35G U78C here?
The self-cleavage was 0.68.

With A5G A18U A35U U51C U54C as the variant, how does the self-cleavage read?
The self-cleavage was 0.22.

For A5G A18U A47G A57G A65U U80C, which self-cleavage is on record?
Its self-cleavage is 0.11.

For A5G A18U A65U U69A A77U, which self-cleavage is on record?
Its self-cleavage is 0.2.

For A5G A18U C29U U54C A65U U67C U69A, which self-cleavage is on record?
The self-cleavage was 0.12.

For A5G A18U C32U A56U, which self-cleavage is on record?
Its self-cleavage is 0.51.

For A5G A18U C39A U60C A75U C81G, which self-cleavage is on record?
Its self-cleavage is 0.07.

For A5G A18U G19A U43C A47G A57G, which self-cleavage is on record?
The self-cleavage was 0.13.

Which self-cleavage does the source give for A5G A18U G24U A35G U43C U60C U74C here?
Its self-cleavage is 0.07.

With A5G A18U G30A U41A C44A U69C U80C as the variant, how does the self-cleavage read?
Its self-cleavage is 0.13.

Which self-cleavage does the source give for A5G A18U G33A A45U U60C here?
The self-cleavage was 0.07.

With A5G A18U G36C U69A as the variant, how does the self-cleavage read?
The self-cleavage was 1.08.

Which self-cleavage does the source give for A5G A18U G42A here?
The self-cleavage was 0.31.

For A5G A18U G46A U69A, which self-cleavage is on record?
Its self-cleavage is 0.06.

Which self-cleavage does the source give for A5G A18U U26A here?
Its self-cleavage is 0.36.

With A5G A18U U26A A28G U43G U69C A77U as the variant, how does the self-cleavage read?
The self-cleavage was 0.

With A5G A18U U26C G33A U43C as the variant, how does the self-cleavage read?
Its self-cleavage is 0.11.

With A5G A18U U26C U41A G46A A64G U76C as the variant, how does the self-cleavage read?
Its self-cleavage is 0.04.

With A5G A18U U31C A35G G36A U54C U80C as the variant, how does the self-cleavage read?
Its self-cleavage is 0.41.

With A5G A18U U41C A56G U67C as the variant, how does the self-cleavage read?
The self-cleavage was 0.23.

With A5G A18U U48C U51C U67C as the variant, how does the self-cleavage read?
Its self-cleavage is 0.08.

Which self-cleavage does the source give for A5G A18U U54C here?
Its self-cleavage is 0.44.

For A5G A18U U67C, which self-cleavage is on record?
The self-cleavage was 0.24.

With A5G A18U U67C U72A as the variant, how does the self-cleavage read?
Its self-cleavage is 0.06.

For A5G A18U U69C, which self-cleavage is on record?
The self-cleavage was 0.22.

Which self-cleavage does the source give for A5G A18U U72A here?
The self-cleavage was 0.36.

With A5G A20C A28C U66C U80C as the variant, how does the self-cleavage read?
Its self-cleavage is 0.06.

With A5G A20C U26C as the variant, how does the self-cleavage read?
The self-cleavage was 0.53.

Which self-cleavage does the source give for A5G A20C U31C U76A U80C here?
Its self-cleavage is 0.12.

For A5G A20G A21G, which self-cleavage is on record?
Its self-cleavage is 0.63.

For A5G A20G A21G U54G, which self-cleavage is on record?
The self-cleavage was 0.13.

Which self-cleavage does the source give for A5G A20G A21U A45G A65G U78C here?
The self-cleavage was 0.11.

Which self-cleavage does the source give for A5G A20G A21U A64G U66C here?
Its self-cleavage is 0.18.

For A5G A20G A28G G46U, which self-cleavage is on record?
The self-cleavage was 0.12.

Which self-cleavage does the source give for A5G A20G A28G U43A U49A U72C here?
Its self-cleavage is 0.04.

For A5G A20G A28U U41C A47G U60A, which self-cleavage is on record?
Its self-cleavage is 0.49.

With A5G A20G A28U U49A as the variant, how does the self-cleavage read?
The self-cleavage was 0.13.

For A5G A20G A35G, which self-cleavage is on record?
Its self-cleavage is 1.15.

For A5G A20G A35U U60C A64G U69C, which self-cleavage is on record?
Its self-cleavage is 0.05.

Which self-cleavage does the source give for A5G A20G A35U U72A here?
The self-cleavage was 0.04.

Which self-cleavage does the source give for A5G A20G A45U U80C here?
The self-cleavage was 0.22.

With A5G A20G A56G as the variant, how does the self-cleavage read?
Its self-cleavage is 0.37.

Which self-cleavage does the source give for A5G A20G A64G here?
The self-cleavage was 0.59.

With A5G A20G A75G U78A as the variant, how does the self-cleavage read?
Its self-cleavage is 0.66.

Which self-cleavage does the source give for A5G A20G C23A here?
The self-cleavage was 0.44.

With A5G A20G C32A U80A as the variant, how does the self-cleavage read?
Its self-cleavage is 0.06.

For A5G A20G G24A C27U, which self-cleavage is on record?
Its self-cleavage is 0.48.

For A5G A20G G42A U51C U60C G70A U72A, which self-cleavage is on record?
Its self-cleavage is 0.15.

With A5G A20G G55A U60A as the variant, how does the self-cleavage read?
The self-cleavage was 0.18.

Which self-cleavage does the source give for A5G A20G U25C here?
Its self-cleavage is 0.45.

For A5G A20G U25C A57G A75G, which self-cleavage is on record?
The self-cleavage was 0.2.

With A5G A20G U25C C40A A64G U80C as the variant, how does the self-cleavage read?
Its self-cleavage is 0.09.

With A5G A20G U25C U41C U67C U74A as the variant, how does the self-cleavage read?
The self-cleavage was 0.04.

With A5G A20G U25C U51C A56G as the variant, how does the self-cleavage read?
The self-cleavage was 0.27.

Which self-cleavage does the source give for A5G A20G U26A A35G A47G U67C here?
Its self-cleavage is 1.1.

Which self-cleavage does the source give for A5G A20G U26C U43C G55U U69C here?
Its self-cleavage is 0.32.

For A5G A20G U26C U72C U74A U80A, which self-cleavage is on record?
Its self-cleavage is 0.53.

For A5G A20G U31A A35G A47G A56G U76C, which self-cleavage is on record?
The self-cleavage was 0.25.

With A5G A20G U31A C62U U80C as the variant, how does the self-cleavage read?
The self-cleavage was 0.1.

With A5G A20G U31C U66C as the variant, how does the self-cleavage read?
The self-cleavage was 0.04.

For A5G A20G U41C U67C G70C, which self-cleavage is on record?
Its self-cleavage is 0.22.

— the RNAGym collection of RNA variant scans (doi:10.1093/nar/gkz1192)
